About 2,200 (0.71%) of roughly 310,000 compounds showed an effect of 50% or more. Effects have a minus sign here. The list shows a part of the results.
These compounds were tested against human ether-à-go-go-related gene (hERG) potassium channel (human, UniProt Q12809) (assay: primary screen, population patch clamp on CHO cells stably expressing hERG).
Sequence of human ether-à-go-go-related gene (hERG) potassium channel (Q12809 whole entry, looked up): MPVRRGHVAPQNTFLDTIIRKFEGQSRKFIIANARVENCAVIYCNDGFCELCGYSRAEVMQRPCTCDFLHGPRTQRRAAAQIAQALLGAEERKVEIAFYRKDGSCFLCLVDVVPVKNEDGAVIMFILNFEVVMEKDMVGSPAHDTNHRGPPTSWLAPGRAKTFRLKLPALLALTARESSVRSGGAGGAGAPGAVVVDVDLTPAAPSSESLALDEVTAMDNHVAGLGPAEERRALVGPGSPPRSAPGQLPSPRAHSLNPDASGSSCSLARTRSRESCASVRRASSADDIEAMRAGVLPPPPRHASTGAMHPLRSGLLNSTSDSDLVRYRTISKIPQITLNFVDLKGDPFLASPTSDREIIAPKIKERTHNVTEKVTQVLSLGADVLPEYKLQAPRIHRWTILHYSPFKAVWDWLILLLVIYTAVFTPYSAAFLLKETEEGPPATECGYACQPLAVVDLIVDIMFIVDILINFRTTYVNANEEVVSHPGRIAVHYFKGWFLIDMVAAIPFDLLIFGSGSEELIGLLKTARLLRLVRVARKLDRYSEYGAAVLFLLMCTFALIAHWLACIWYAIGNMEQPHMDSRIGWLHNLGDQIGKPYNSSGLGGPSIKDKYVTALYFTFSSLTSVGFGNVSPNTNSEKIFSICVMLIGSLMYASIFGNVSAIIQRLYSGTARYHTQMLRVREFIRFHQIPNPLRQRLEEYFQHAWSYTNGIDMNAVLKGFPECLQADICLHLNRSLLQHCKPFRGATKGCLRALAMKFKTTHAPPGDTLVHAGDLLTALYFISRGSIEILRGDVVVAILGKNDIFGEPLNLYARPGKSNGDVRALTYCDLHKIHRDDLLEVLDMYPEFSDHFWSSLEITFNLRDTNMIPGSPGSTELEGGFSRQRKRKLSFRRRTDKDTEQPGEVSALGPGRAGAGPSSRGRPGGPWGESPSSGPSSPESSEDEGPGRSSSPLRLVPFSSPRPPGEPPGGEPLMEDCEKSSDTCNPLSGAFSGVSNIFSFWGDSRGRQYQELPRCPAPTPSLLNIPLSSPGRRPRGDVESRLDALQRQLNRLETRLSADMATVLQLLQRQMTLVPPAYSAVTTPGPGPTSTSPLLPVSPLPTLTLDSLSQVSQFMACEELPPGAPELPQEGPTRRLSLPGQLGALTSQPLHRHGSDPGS

In order of rising “hERG current change (%, negative = inhibition) at 1uM” value:
1. CCCCN(CC(O)COc1cccc(C)c1)CC(O)COc1cccc(C)c1 (stereo not drawn)  -33%
2. Cn1c(=O)c2c(-c3ccc(C(C)(C)C)cc3)n(N3CCOCC3)cc2n(C)c1=O  -18%
3. Cc1ccc(OCC(=O)OCc2c(C)noc2C)cc1C  -13.7%
4. Fc1ccccc1COc1cccc(/C=N/n2cnnc2)c1  -12.6%
5. c1ccc(CSc2nnc3ccc(-c4ccncc4)nn23)cc1  -12%
6. CC(=O)c1ccc(N2CCN(C(=O)c3cc4c(-c5ccccc5F)nn(C)c4s3)CC2)cc1  -11.6%
7. COc1ccc2cc(C(c3nnnn3Cc3ccc(F)cc3)N3CCCCCC3)c(=O)[nH]c2c1 (stereo not drawn)  -10.2%
8. Cn1c(=O)c2c(nc(OCc3cccnc3)n2Cc2ccccc2)n(C)c1=O  -8.26%
9. O=C(NCCCN1CCCC1=O)c1cc(NS(=O)(=O)c2ccc(F)cc2)cc(NS(=O)(=O)c2ccc(F)cc2)c1  -7.14%
10. Cc1ccc(S(=O)(=O)Nc2nncs2)cc1  -4.68%
11. O=C(CCNC(=O)c1ccc([N+](=O)[O-])cc1)Nc1cccc(S(=O)(=O)N2CCCCC2)c1  -3.91%
12. CCOC(=O)C1C2C=CC3(CN(Cc4ccccc4)C(=O)C13)O2 (stereo not drawn)  -0.0721%
13. CCOc1ccc(C2SCC(=O)Nc3c2c(=O)[nH]n3C2CCCCCC2)cc1 (stereo not drawn)  0.105%
14. O=C(NCCC1=CCCCC1)c1ccc(Cl)c(S(=O)(=O)N2CCOCC2)c1  0.268%
15. Cc1nc(C)n(C)c(=O)c1-c1ccccc1  0.842%
16. CCN(CC)S(=O)(=O)c1ccc(S(=O)(=O)N(CC(=O)Nc2ccccc2)Cc2ccco2)cc1  0.938%
17. CC(CC(=O)N1CCN(C(=O)c2ccccc2)CC1)c1ccccc1 (stereo not drawn)  1.46%
18. Cc1nc(SCC(=O)NCc2ccco2)c2c3c(sc2n1)CCCC3  1.52%
19. Cc1cc(-c2csc(N)n2)c(C)n1Cc1ccccc1  1.75%
20. CCc1cccc(Nc2cc(C)nc3ncnn23)c1  2.1%
21. CC(C)(CO)CNC(=O)c1ccc2nc(Cc3cccc(Cl)c3)oc2c1  2.77%
22. COC(=O)C1(C)Nc2ccccc2C(=O)N1c1ccccc1C (stereo not drawn)  2.92%
23. Nc1ncnc2c1ccn2[C@@H]1O[C@H](CO)[C@@H](O)[C@H]1O  3.09%
24. O=C(NCCOc1ccccc1)c1cc2ccccc2o1  3.1%
25. CCC1(CC)NC(=O)N(CC(=O)OCC(=O)Nc2ncc(Cl)cc2Cl)C1=O  4.27%
26. Cc1ccc(C(=O)Nc2cc3c(oc2=O)CCCC3=O)cc1  4.72%
27. COc1ccc(/C=C/C(=O)NC(=S)NNC(=O)c2ccco2)cc1OC  4.79%
28. CC(CN1CCN(c2ccccc2)CC1)c1ccccc1 (stereo not drawn)  5.12%
29. Cc1[nH]c2ccccc2c1C(C#N)(C#N)C1C(=O)c2ccccc2C1=O  5.22%
30. CC(SC(=S)N1CCOCC1)C(=O)O (stereo not drawn)  5.56%
31. O=C1CC(Sc2ncccc2C(=O)O)C(=O)N1 (stereo not drawn)  5.9%
32. CCOC(=O)C(C)n1cnc2c(cnn2-c2ccc(Cl)cc2)c1=O (stereo not drawn)  7.05%
33. O=C1c2ccccc2NC(c2cccnc2)N1c1ccccc1F (stereo not drawn)  7.17%
34. Cn1c(=O)c2c(nc(N/N=C/c3cccs3)n2Cc2ccccc2)n(C)c1=O  7.42%
35. CCCN1CCC(=NNc2ccc(S(=O)(=O)N(CC)CC)cc2[N+](=O)[O-])CC1  7.7%
36. COc1ccc(/C=C/C(=O)O)cc1S(=O)(=O)NCc1cccnc1  7.86%
37. Cn1nnc(NC(=O)c2ccc(C(C)(C)C)cc2)n1  8.06%
38. COc1cccc(C(=O)NCCSc2c(C)[nH]c3ccccc23)c1OC  8.32%
39. CC1Cc2cc(S(=O)(=O)NCc3ccccc3)ccc2N1C(=O)C1CC1 (stereo not drawn)  8.4%
40. COc1ccc(N2CCN(C(=O)CSc3ncn[nH]3)CC2)cc1  8.5%
41. COc1ccc(C(N)CCc2ccco2)cc1.Cl (stereo not drawn)  9.14%
42. CC1CCc2sc(-c3n[nH]c(=S)o3)cc2C1 (stereo not drawn)  9.17%
43. COc1cc(OC)cc(C(=O)N[C@H](C(=O)Nc2ccccc2N2CCOCC2)C(C)C)c1  9.22%
44. C[N+]1(C)CCOC(O)(c2ccc(-c3ccc(C4(O)C[N+](C)(C)CCO4)cc3)cc2)C1.[Br-] (stereo not drawn)  9.47%
45. Cc1ccc(NC(=S)NC2CCCC2)cc1C  9.49%
46. COc1cccc(NC(=O)COC(=O)c2c(NC(C)=O)sc(C)c2C)c1  9.59%
47. O=C(COc1nsnc1N1CCOCC1)Nc1ccc(Cl)cc1  9.65%
48. CC1Sc2ccc(C(=O)Nc3ccccc3OC(F)F)cc2NC1=O (stereo not drawn)  9.85%
49. Cn1nnnc1SCC(=O)Nc1c(Cl)cccc1Cl  9.9%
50. CCOc1cc(N2CCOCC2)c(OCC)cc1NC(=O)Cc1ccc(OC)c(OC)c1  10.1%
51. CCOC(=O)N1CCN(C(=O)c2ccc(SC)cc2OC)CC1  10.4%
52. Cc1c(Cl)cccc1N=C(N)N=C(N)N  10.4%
53. CC1=C(C(=O)OCc2ccccc2)C(c2cccc(F)c2)NC(=O)N1 (stereo not drawn)  10.4%
54. Cc1cccc(OCC(=O)NCCCNC(=O)c2ccncc2)c1  11%
55. CCCC(C)CO (stereo not drawn)  11.1%
56. CCN1C(=O)c2cccc3c(S(=O)(=O)NCC4CCCO4)ccc1c23 (stereo not drawn)  11.1%
57. Cc1ccc(C2=NNC(c3ccc(Cl)cc3)=Nc3ccccc32)o1  11.2%
58. Cc1ccccc1C(=O)OCc1nnc(-c2ccc(Cl)cc2)o1  11.2%
59. O=C(c1cc(COc2ccc(F)cc2Cl)on1)N1CC[C@@H]2CCCC[C@H]2C1  11.3%
60. O=C(O)C1C2CCC(O2)C1C(=O)Nc1ccc(O)cc1 (stereo not drawn)  11.6%
61. Cc1ccc(CNS(=O)(=O)c2cc(F)ccc2CN2C(=O)c3cccnc3C2=O)o1  12%
62. CCOC(=O)C1=C(C)NC(=O)C1CC(=O)Nc1ccccc1 (stereo not drawn)  12%
63. C=CCn1c(SCc2ccccc2Cl)nnc1-c1sc2nc(C)cc(C)c2c1N  12.2%
64. CCOC(=O)N/N=C\c1ccc(OC/C=C/c2ccccc2)c(OC)c1  12.3%
65. Cc1ccccc1NC(=O)COC(=O)c1ccccc1SCC(=O)N1CCCC1  12.3%
66. O=C(OCCN1C(=O)c2cccc3c(N4CCOCC4)ccc(c23)C1=O)c1ccc(Cl)cc1  12.3%
67. CC(C(=O)Nc1ccc(C#N)cc1)N(C)CC(=O)Nc1ccccc1Br (stereo not drawn)  12.4%
68. NC(=O)c1cnccn1  12.5%
69. Cc1ccc(C2c3c(-c4ccccc4O)n[nH]c3C(=O)N2Cc2ccncc2)cc1 (stereo not drawn)  12.8%
70. N#CCCN(Cc1ccccc1)C(=O)Nc1ccc2c(c1)CCO2  13.2%
71. COc1cc(-c2nnc(SCC(=O)c3ccc(C)cc3)o2)cc(OC)c1OC  13.5%
72. CCO[C@H]1OC(C(N)=O)=C[C@@H](C2CCCCC2)[C@@H]1CCCO  13.6%
73. CN1CCN(c2ccncc2S(=O)(=O)N2CCCCC2)CC1  13.8%
74. C/C(=N\NC(=O)c1ccc2c(c1)OCO2)c1ccco1  14.3%
75. Fc1cccc(/C=N/Nc2nc3ccccc3[nH]2)c1  14.3%
76. CNC(=O)COC(=O)c1cc(F)c(F)cc1Cl  14.3%
77. O=C(Oc1c(Cl)cc(Cl)c2cccnc12)c1cccc([N+](=O)[O-])c1  14.9%
78. O=C(CCCCCN1C(=O)c2cccc3cccc(c23)C1=O)NCc1ccco1  15.1%
79. CN(C)CC(C)(C)CNS(=O)(=O)c1ccc(Cl)s1  15.4%
80. Cn1c(=O)c2cn(Cc3ccc(Cl)cc3)cc2n(C)c1=O  15.6%
81. CC(=O)c1cc(C#N)c(Oc2ccccc2)nc1C  15.6%
82. O=C(OCC(=O)N1CCCc2ccccc21)c1cc(Cl)ccc1O  16.2%
83. COc1ccc(-c2nc(NC(=O)c3nc4nccc(C)n4n3)sc2C)cc1  16.8%
84. COc1cc(C(c2c(C)n(C)n(-c3ccccc3)c2=O)c2c(C)n(C)n(-c3ccccc3)c2=O)cc(Br)c1O  16.9%
85. CN1C(=S)SC(/[N+]([O-])=C/c2ccc(Cl)cc2)C1(C)C (stereo not drawn)  17.2%
86. O=C(c1cccc([N+](=O)[O-])c1)N1CCc2ccccc21  17.2%
87. CC(C)Cn1c(-c2ccccc2)nc(=S)c2c1CCCC2  17.3%
88. CCN(CC)C(=O)CC(c1cc(OC)c(OC)c(OC)c1)c1c(OC)cc(OC)c2c(-c3ccccc3)cc(=O)oc12 (stereo not drawn)  18.5%
89. COc1ccc(N(CC(=O)O)S(=O)(=O)c2ccc(C)cc2)cc1Cl  19.2%
90. CCc1cc(=O)[nH]c(-n2[nH]c(-c3ccccc3)cc2=O)n1  19.5%
